# Experimental data from the supplement of paper PMC10126150.
# Values marked as one replicate rest on one cluster of the flow cell; about a third of the high ones do not repeat.
# System: ATP
# Assay: switch fluorescence ratio, 500 uM ATP over buffer (Cy3 cluster intensity, sum of 5 cycles each) (fold (ratio)); higher = stronger signal-on switching upon ATP binding; sequences stand for … in TCGTCGGCAGCGTCAGATGTGTATAAGAGACAGTTTTTTTTTTTTTTTTTTTTTTTTT…TC
# Settings: aptamer strand: ATP DNA aptamer (quencher-CACCTGGGGGAGTATTGCGGAGGAAGG + anchor), 100 nM annealed; ATP concentration: 500 uM; one replicate
# Outline: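 The fluorescence ratio divides summed target-cycle Cy3 intensity by summed buffer-cycle Cy3 intensity for each cluster and is averaged per switch-domain sequence. Cy3-labelled switching-strand clusters on a modified Illumina MiSeq flow-cell were annealed to 100 nM quencher-labelled ATP aptamer, then imaged in selection buffer and again after 15 min with 500 uM ATP at 22 °C. Five such cycles were run, with NaOH stripping and re-annealing between them, and clusters outside 100-1000 RFU were excluded.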
# 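Also: ATP exposure 15 min at 22 °C before imaging.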
row,Sequence,switch fluorescence ratio
1,ACACTTGTCG,1.07
2,AGCGTAAACG,0.956
3,TCGTTAGTAT,0.968
4,GAAAAGATCT,1.01
5,AGCCAGAGCA,1.04
6,ACGTTAACCT,1.47
7,CTGCAGAAGT,1.01
8,CTGAGGGAGT,0.979
9,GTACGGACAG,1.33
10,TAATAGCAAT,2.53
11,AAGCCGGGAA,0.999
12,TTGAAGTCTC,1.25
13,GCCGTTGTTT,0.999
14,ACTAAGAGTA,0.987
15,TCAGTTACCC,0.987
16,CCTCTCTGG,1.07
17,GAGGAAGGTA,1.03
18,ATAATAGGA,0.975
19,CGACCCGTTT,1.02
20,ACACGCCGTT,1.09
21,GTAGTAAGTG,1.07
22,CCGCTTTTTG,1.25
23,AGCTGTGAGA,1.07

row,Sequence,switch fluorescence ratio
1,TTAGTTCGTC,1.07
2,ATTGCCAGAG,1.04
3,CACGAGCTTT,1.04
4,GAAGGGATCC,1.04
5,TGCGCTATCG,1.05
6,CGGACTATGC,1.29
7,TGAACCTGCA,1.69
8,AATTTTGTCC,1
9,AACCGCAAGG,1
10,TCTGGCTTTC,1.16
11,CACCGCATGG,1.88
12,CTTTTCGGTA,0.983
13,TATTTCCTGA,1.05
14,GCAATCGAAT,1.08
15,GGTAGTGACG,1.04
16,CAGGAATACA,1.46
17,TGCAGGTCGT,0.994
18,GGCAGAGGCC,1.04
19,TCACGATTAT,1.06
20,CGTGCTAGTG,0.968
21,AGATTCTGTG,1.01
22,ATGGAGATG,0.991
23,AGCTCTCGCC,1.07

row,Sequence,switch fluorescence ratio
1,CCTTTGTGGA,1.04
2,TAGGTACTTT,1
3,TGGTCCTATA,1.02
4,AGAAACGCAG,1.02
5,CGAGGCGCCG,1.08
6,TGGTCAAGCG,1.04
7,GGTCTAGCAT,1.02
8,GCATTCCACC,1.31
9,AGCCGTCACA,0.982
10,GCCCGAGTGG,1.04
11,TTGTCTGAG,0.992
12,GATTTCGTGA,0.979
13,AGTCTAAGA,0.976
14,TTCTTAGCGA,1.11
15,TGAGTCTAGC,1.07
16,CACGTGAAAT,0.982
17,GGCGTACAAC,1
18,GGTGTAGAGT,1.01
19,GGCGAAATCA,1.21
20,GTGGAGCGTC,1.01
21,CTCATAGAGC,0.971
22,TATTTCTGGT,0.935
23,TTTCTTATCT,0.975

row,Sequence,switch fluorescence ratio
1,CTCGCTCCCG,1.08
2,AAAGTTCGAT,1.02
3,ATTTGGGTAA,1
4,GATGCGAATA,1.13
5,CCTTATCGCG,1.03
6,AAAAAACGAG,1.05
7,TCGCTCCAAT,1.08
8,TTTCAGCGCT,1.01
9,GCTCCTGGAC,1.76
10,AGCATCAGGT,1
11,GGCTTCACGC,1.06
12,AGACTGGGGA,0.971
13,ACTCATCACG,1.13
14,CTCTTTTATT,0.985
15,GAATGTGGTA,0.971
16,GAGCTCAGCG,0.994
17,AGTTTGGTAG,0.989
18,TAATTGCAGG,1.01
19,TGTTTATGGA,0.982
20,TTTCGATAAT,1.01
21,GATACTGCTA,1.03
22,TAAGCATCGA,1.05
23,ATGATGGTAG,1.02

row,Sequence,switch fluorescence ratio
1,TTTGTTGA,0.967
2,TAGAGTAAGT,0.95
3,TCGAGGATCC,0.887
4,GATATCAAGC,0.986
5,AAAGTAGAAG,0.945
6,TGAATGTGGG,0.951
7,CCTTGCTAGG,1.06
8,CAGTCCGTC,1.05
9,GAGTAATGAT,0.995
10,ATGTTCCTCT,1.07
11,ACTGTCGCGA,0.937
12,TCGTCGACAA,2.94
13,GGGGATTGCG,0.952
14,CTTGAAAGAA,1.17
15,AGGAACTGAG,1.03
16,ATTTAAGCCA,0.974
17,AGTGTTTAGT,0.966
18,TACTGCACAT,1.34
19,TAAATAGCTC,1.03
20,GTAGCATTCC,3.97
21,CCGGAGAATC,5.19
22,CGGACTTTTA,0.982
23,TTTGGAAGTA,0.937

row,Sequence,switch fluorescence ratio
1,TTATCGGGCA,0.979
2,AAACTCTATC,1.03
3,CGCGAAGTAT,1
4,TGGCGCGACG,0.99
5,CCAAGGTAG,1.15
6,GCAAATTATG,0.998
7,TGTTGAATAA,1
8,CTAGATCCTG,1
9,TAGAGGAATT,0.994
10,GTAACTCTCG,1.01
11,GCGGCGTGGG,1.01
12,TTGGAAATC,0.997
13,TTTTCTCTCT,1
14,TGCGGGCACT,1.01
15,TTGGACTCG,0.977
16,CCCGTGGTTA,1.02
17,ATTAAGGACT,1.01
18,GGTGCAGCAG,1.01
19,TCCTCTGGGA,1.81
20,CTCAGTAGGT,0.977
21,GCTCAGTACC,1.09
22,AGGTAATATT,1
23,AAGGGGAA,1

row,Sequence,switch fluorescence ratio
1,GCCTAGACTT,0.994
2,ATTACCGGTG,1.06
3,TGCCTATCGA,0.977
4,TATGGAGCCC,1.08
5,TTTCTGCGTA,1.01
6,TTACTGAGCG,1
7,ATTCCGACTA,1.66
8,TTTGAGAA,1.01
9,AAAATGGATA,0.98
10,CGTATTTATG,1
11,AGGACGTTCT,0.947
12,GGTGAAGAAT,0.999
13,CCCGTGGTGG,1.03
14,ACGTAGTGTA,1.01
15,TCCTGAGGAC,1.05
16,CTCCCACATG,3.29
17,TTTAGATATC,1.01
18,TGACCCGCCT,1.11
19,TGAATCCCGC,1.03
